Out of some 54,000 compounds screened, about 120 (0.22%) were called active. Inconclusive results, whose numbers are uncertain, are shown with a selection of clear calls. The call rests on the fitted dose curve; in most records, active means well fitted inhibition curve with a large enough effect; inconclusive means small, poorly fitted or top-dose-only effect, or effect the other way; inactive means flat fitted curve, though single readings scatter. Potencies of inconclusive entries are left out as doubtful fits.
Biological target: Fumarate hydratase, mitochondrial (Homo sapiens) (UniProt P07954)
Assay: Identification of activators of human fumarate hydratase by quantitative high-throughput screening; further: the screen sought activators but most active calls are inhibition curves; nearly all actives have a fitted effect of over 45% in size
Settings: FH coupled MDH/diaphorase resazurin fluorescence, 15 min; activity change, negative = inhibition: at 79.9 µM (top of the series)
On the % scale 0 is the no-effect control and ±100 the full control effect; potency means the concentration at half of the fitted maximal effect; tags describe the fitted curve by direction and shape.

Chain of UniProt P07954 (P07954 whole entry, looked up): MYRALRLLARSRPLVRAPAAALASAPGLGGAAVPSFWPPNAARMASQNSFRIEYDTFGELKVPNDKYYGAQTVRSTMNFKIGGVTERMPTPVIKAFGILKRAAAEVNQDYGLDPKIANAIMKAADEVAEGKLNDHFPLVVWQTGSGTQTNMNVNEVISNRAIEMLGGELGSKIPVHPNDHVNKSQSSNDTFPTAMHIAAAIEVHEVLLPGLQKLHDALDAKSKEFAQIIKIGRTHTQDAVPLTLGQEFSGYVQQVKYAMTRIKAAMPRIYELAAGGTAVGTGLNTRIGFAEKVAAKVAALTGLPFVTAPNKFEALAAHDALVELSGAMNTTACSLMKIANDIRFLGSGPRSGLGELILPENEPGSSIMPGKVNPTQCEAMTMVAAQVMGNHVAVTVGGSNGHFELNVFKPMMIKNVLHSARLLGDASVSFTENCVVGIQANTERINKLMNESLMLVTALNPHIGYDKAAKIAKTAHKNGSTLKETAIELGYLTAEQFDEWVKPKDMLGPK

Compound	Potency	activity change, negative = inhibition
O=C(O)c1ccc(CN2CCC(CN[C@@H]3C[C@H]3c3ccccc3)CC2)cc1	inactive	
O=C(Nc1cccc(F)c1)c1ccc(-c2ccccc2)s1	inactive	
Nc1ncnc(Nc2ccc(OCc3ccccc3)c(Cl)c2)c1/C=N/OCCN1CCOCC1	inconclusive [inhibitor, single point]	
Cc1cccc(NS(=O)(=O)c2ccc3c(c2)CCN3C(=O)C2CCC2)c1	inactive	
O=C(Cn1c(=O)oc2cc(S(=O)(=O)NCc3ccccc3)ccc21)NCc1ccc(Cl)cc1	inactive	
CCOc1cc(CNC(=O)Cn2c(-c3cccs3)cc3cc(F)ccc32)ccc1OC	inactive	
O=C(NCC1CN(c2ccc(N3CCOCC3=O)cc2)C(=O)O1)c1ccc(Cl)s1 (configuration not stated)	inconclusive [activator, full curve, poor fit]	
CC1Cc2cc(S(=O)(=O)N(Cc3ccccc3)C(C)C)ccc2N1C(=O)C1CCC1 (configuration not stated)	inconclusive [inhibitor, partial curve, poor fit]	
Cc1ccccc1Nc1c(-c2cccs2)nc2cccc(C)n12	inconclusive [inhibitor, partial curve, poor fit]	
CC1OC(O[C@H]2CC[C@@]3(C)C(CC[C@]4(C)C3CC=C3C5CC(C)(C)CC[C@]5(C(=O)OC5OC(CO)C(OC6OCC(OC7OCC(O)C(O)C7O)C(O)C6O)C(O)C5O)CC[C@]34C)C2(C)C)C(O)C(O)C1OC1OC(CO)C(O)C(OC2OC(CO)C(O)C(O)C2O)C1O (some centres not stated)		inactive: -9.71% [at 13.5 µM]
Cc1cccc(NC(=O)Cn2c(=O)oc3cc(S(=O)(=O)NC4CCCC4)ccc32)c1	inactive	
CCOC(=O)c1ccc(NS(=O)(=O)c2ccc3[nH]c4c(c3c2)CCCCC4)cc1	inconclusive [inhibitor, single point]	
COc1ccc(CNc2oc(-c3ccc(COc4ccc(OC)cc4)o3)nc2C#N)cc1	inconclusive [inhibitor, partial curve]	
CCOc1ccccc1NC(=O)Cn1c2ncccc2c(=O)n1-c1ccc(C)c(C)c1	inactive	
Cn1nnnc1SCCCNCc1cccc(OCc2ccccc2Cl)c1	inactive	
CCN1C(=O)C(Cc2nc3ccccc3c(=O)n2-c2ccccc2)c2cc(Br)ccc21 (configuration not stated)	inconclusive [inhibitor, partial curve, poor fit]	
CCc1ccc(N(C)S(=O)(=O)c2ccc3[nH]cc(C(=O)NCC4CCCO4)c(=O)c3c2)cc1 (configuration not stated)	inconclusive [inhibitor, partial curve]	
CCn1cc2nc(SCc3cc(C)ccc3C)n(Cc3ccc(OC)cc3)c(=O)c2n1	inconclusive [inhibitor, single point]	
O=C(c1ccc2c(Cl)c3c(nc2c1)CCCC3)N1CCN(c2ccccc2F)CC1	inconclusive [inhibitor, partial curve]	
CC(C)(C)[C@]1(O)CCN2C[C@H]3c4ccccc4CCc4cccc(c43)[C@@H]2C1	inconclusive [inhibitor, single point]	
COc1ccc(N2CC(NC(=O)c3c(F)cccc3Cl)CC2=O)cc1OC (configuration not stated)	inactive	

Compound	Potency	activity change, negative = inhibition
Cc1ccc(S(=O)(=O)NCCc2csc3nc(-c4ccccc4C)nn23)cc1	inactive	
CCCN(C(=O)c1cc2c(=O)oc3ccccc3c2s1)c1ccccc1C	inconclusive [inhibitor, partial curve, poor fit]	
Cc1ccc(C(=O)Nc2ccc3nc(N4CCCCC4)cc(C)c3c2)cc1F	inconclusive [inhibitor, partial curve, poor fit]	
O=S(=O)(Nc1ccc(Cl)cc1)c1cccc(S(=O)(=O)c2ccc(Cl)c(Cl)c2)c1	inconclusive [inhibitor, partial curve]	
Nc1ncnc2c1nc(N)n2[C@@H]1O[C@H](CO)[C@@H](O)[C@H]1O	inactive	
COc1ccc(NC(=O)c2cnc[nH]2)cc1	inactive	
CCN=C1N[C@@H]2[C@@H](O)[C@H](O)[C@@H](CO)O[C@@H]2S1	inactive	
COc1ccc(CCNC(=O)c2ccc3c(c2)N(Cc2ccc(F)cc2)CCS3)cc1OC	inconclusive [inhibitor, partial curve, poor fit]	
Nc1ccc2cc3ccc(N)cc3nc2c1	inactive	
CCOc1ccc(N(C)C(CNS(=O)(=O)c2ccccc2)c2ccccc2)cc1 (configuration not stated)	inconclusive [inhibitor, single point]	
COc1ccccc1-c1cc2nc(C)c(CCC(=O)NCc3cccc(Cl)c3)c(C)n2n1	inconclusive [inhibitor, partial curve, poor fit]	
Cc1ccc(CNC(=O)CN(c2ccc(C)cc2)S(=O)(=O)c2c(C)nn(C)c2C)cc1	inactive	
CCN(C(=O)Cn1nnc2sc(-c3ccccc3)cc2c1=O)c1cccc(C)c1	inactive	
O=C(Nc1ccc(F)cc1F)c1cc2nc(-c3ccco3)cc(C(F)(F)Cl)n2n1	inconclusive [inhibitor, single point]	
Cc1ccc(CNCc2c(C(=O)O)n(Cc3ccc(C)cc3)c3cc(C)ccc23)cc1	inconclusive [inhibitor, partial curve, poor fit]	
Cc1cc(C)cc(NC(=O)CSc2nnc(-c3cc4occc4n3C)n2-c2ccccc2C)c1	inconclusive [inhibitor, single point]	
O=C(Nc1ccc(Cl)cc1)N1CCN(c2ccc3nnc(-c4ccccc4)n3n2)CC1	inconclusive [inhibitor, partial curve, poor fit]	
O=C(C1CCC(Cn2c(=O)c3sccc3n(Cc3ccccc3F)c2=O)CC1)N1CCCCC1 (configuration not stated)	inconclusive [inhibitor, partial curve, poor fit]	
COc1ccccc1N(CC(=O)NCCSCc1cccc(Cl)c1)S(C)(=O)=O	inactive	
CC1CCN(c2oc(/C=C/c3ccc(F)cc3)nc2C#N)CC1	inactive	
CCOc1ccc(-c2cc(NC(=O)c3c(F)cccc3F)c(C(=O)O)s2)cc1	inconclusive [inhibitor, single point]	
